About 200 (0.44%) of roughly 45,000 compounds were called active. About 7% were inconclusive and are not listed. Calls follow the shape of the dose curve; as a rule, active = well fitted activation curve with a large enough effect; inconclusive = small, poorly fitted or top-dose-only effect; inactive = no such curve, though single readings can be large or run the other way. The list shows a part of the results.
Assay: qHTS of TDP-43 Inhibitors: NCGC Sytravon Library Screen; also: 0% is about no effect; nearly all actives have a fitted effect of over 55% in size
Conditions: yeast TDP-43 toxicity rescue, BacTiter-Glo growth, 24 h; series mostly up to 46.1 µM; growth rescue (activation): at the top concentration
Summary of the method: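 TDP-43-expressing yeast, pregrown in raffinose, seeded at OD600 0.02 in galactose medium with compound for 24 hr at 30 deg C. Growth read by BacTiter-Glo luminescence, so rescue of toxicity appears as activation.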

Row | SMILES | growth rescue (activation)
1 | CC1CCCCC1NC(=O)c1cc(S(=O)(=O)N2CCOCC2)ccc1Cl (stereo not drawn) | inactive: 8.46%
2 | COc1ccccc1NC(=O)N1CC=C(c2c[nH]c3ccccc23)CC1 | inactive: 10%
3 | Nc1nc(N)nc(COc2ccccc2)n1 | inactive: -3.07%
4 | COc1ccc2c(c1)c(C(=O)N/N=C/c1ccccc1Cl)c(C)n2C | inactive: 0.154%
5 | CCOc1ccc2[nH]c3c(=O)n(CCc4ccc(OC)cc4)cnc3c2c1 | inactive: 7.37%
6 | COc1ccc(OC)c(C2C=C(C34CC5CC(CC(C5)C3)C4)NC(=S)N2)c1 (stereo not drawn) | inactive: 11.8%
7 | O=C(O)COc1ccccc1/C=N/NC(=O)CSc1nc2ccccc2n1Cc1ccccc1Cl | inactive: 13.1%
8 | COC(=O)CSC1=C(C#N)C(c2ccc(C)o2)CC(=O)N1 (stereo not drawn) | inactive: -17%
9 | COc1ccc(CNC(=O)[C@H](Cc2c[nH]c3ccccc23)NC(C)=O)cc1OC | inactive: 6.34%
10 | CN1CCN(C(=S)Nc2cccc(C(F)(F)F)c2)CC1 | inactive: 18.5%
11 | COc1ccc(CN2CCN(C(=O)C3CCN(S(=O)(=O)c4cccs4)CC3)CC2)c(OC)c1OC | inactive: 15.2%
12 | C=CCN(C(=O)CNC(=O)c1cccs1)C(C(=O)NC1CCCCC1)c1cccnc1 (stereo not drawn) | inactive: 11.3%
13 | Cc1ccc(NC(=O)c2cccs2)cc1S(=O)(=O)Nc1cccc(Cl)c1 | inactive: 18.1%
14 | O=C(N/N=C/c1ccccc1O)c1ccc2c(c1)OCO2 | inactive: 3.65%
15 | Cc1noc(NS(=O)(=O)c2ccc(NC(=O)c3ccc(Cl)c(S(=O)(=O)N(C)c4ccccc4)c3)cc2)c1C | inactive: 24.8%
16 | CCOc1ccc(NC(=O)C(=O)N/N=C\c2ccc(CNS(=O)(=O)c3ccccc3)o2)cc1 | inactive: 13.4%
17 | O=c1cc(CN2CCCCC2)nc(C2CC2)[nH]1 | inactive: -15.2%
18 | O=C(O)CCCC(=O)N1N=C(c2ccccc2)CC1c1cccs1 (stereo not drawn) | inactive: 1.69%
19 | N#CCCn1cc(C(=O)N2CCOCC2)c(-c2ccc3c(c2)OCCO3)n1 | inactive: 9.4%
20 | COc1cc(CNC(=O)c2cc(-c3cc(F)ccc3OCC3CCCO3)n[nH]2)cc(OC)c1 (stereo not drawn) | inactive: 10%
21 | COc1ccc(NC(C)=O)cc1S(=O)(=O)Nc1ccc(OCc2ccccc2)cc1 | inactive: 0.952%
22 | O=C(CS(=O)(=O)c1ccccc1)Nc1nnc(C(F)(F)F)s1 | inactive: 16.6%

Row | SMILES | growth rescue (activation)
23 | C=CCN(C(=O)C1=NN(C2CCS(=O)(=O)C2)C(=O)CC1)c1nc(-c2ccc([N+](=O)[O-])cc2)cs1 (stereo not drawn) | inactive: 14%
24 | CCCn1c(SCC(=O)N2CCc3ccccc32)n[nH]c1=O | inactive: 1.36%
25 | CCC1=NN2C(=N)/C(=C\c3cccn3-c3ccc(C)c(C)c3)C(=O)N=C2S1 | inactive: -6.87%
26 | CC(C)(C)C(=O)NC(CC(=O)O)c1ccccc1 (stereo not drawn) | inactive: 7.2%
27 | CN(C)S(=O)(=O)c1ccc(NC(=S)NC(=O)Cc2ccccc2)cc1 | inactive: -6.97%
28 | Cc1ccc(O)c(C2=Nc3ccccc3N=C(c3ccco3)C2)c1 | inactive: 24.3%
29 | CC1CCc2c(sc(NC(=O)c3cccn3C)c2C(N)=O)C1 (stereo not drawn) | inactive: 17.8%
30 | COCCn1nnnc1C(CC(C)C)N1CCN(c2nc3ccccc3s2)CC1 (stereo not drawn) | inactive: 5.53%
31 | N#CC1(C#N)C(C(N)=O)C1c1ccccc1 (stereo not drawn) | inactive: 12.4%
32 | CCc1nnc(N2C(=N)SCC2=O)s1 | inactive: -8.08%
33 | Cn1c(CNC(=O)c2ccc(Cl)cc2)nnc1SCC(=O)NC1CCCC1 | inactive: 14%
34 | O=S(=O)(c1cccc2c(S(=O)(=O)N3CCCC3)cccc12)N1CCCC1 | inactive: 2.53%
35 | Cc1cc(=O)oc2cc(OCC(=O)N3CCCc4ccccc43)ccc12 | inactive: 20.9%
36 | CCCOc1ccc(/C(O)=C2/C(=O)C(=O)N(CCCn3ccnc3)C2c2cccnc2)cc1 (stereo not drawn) | inactive: 10.8%
37 | CC1CCCC(C)N1/N=C/c1ccccc1OC(F)F (stereo not drawn) | inactive: 16.1%
38 | Cc1nc2sccn2c(=O)c1Br | inactive: 5.2%
39 | O=S(=O)(c1ccc(F)cc1)N1CCN(CCOc2ccccc2)CC1 | inactive: 11.1%
40 | CC(C)c1ccc(NC(=O)c2cc3c(=O)n(C)c4ccccc4c3n2C)cc1 | inactive: 28.7%
41 | COC(=O)c1cc(Cl)c(NC(=O)/C=C/c2ccc(Cl)cc2Cl)cc1OC | inactive: 9.46%
42 | CCOC(=O)c1ccc(NC(=O)C(=O)NCc2ccco2)cc1 | inactive: 10.5%
43 | Cc1ccc(-c2[nH]c(=O)n3ccncc23)s1 | inactive: 8.8%
44 | Cc1ccsc1C(=O)OCC(=O)NC1CC1 | inactive: 15%

Row | SMILES | growth rescue (activation)
45 | CC(OC(=O)c1ccc2c(c1)NC(=O)CS2)C(=O)c1ccc(F)cc1 (stereo not drawn) | inactive: 11.2%
46 | CCCN(CCC)Cc1c(C(=O)N/N=C/c2c[nH]c3ccccc23)nnn1-c1nonc1N | inactive: 0.72%
47 | CC1CN(C(=O)COC(=O)Cc2c(Cl)cccc2Cl)CC(C)O1 (stereo not drawn) | inactive: -5.52%
48 | CCOC(=O)C1C(c2ccc([N+](=O)[O-])cc2)C2C(=O)NN=C2CC1(C)O (stereo not drawn) | inactive: 12.4%
49 | O=C(NCc1ccc2c(c1)OCO2)C1CC(=O)N(c2ccc(Cl)cc2)C1 (stereo not drawn) | inactive: 13.1%
50 | Cc1ccnc(NS(=O)(=O)c2ccc(NS(=O)(=O)Cc3ccccc3)cc2)n1 | inactive: 14.4%
51 | CCN1C(=O)CC(C(=O)Nc2ccc(F)cc2)SC1=Nc1ccc2c(c1)OCO2 (stereo not drawn) | inactive: 9.14%
52 | O=S(=O)(/N=C(\[O-])C[n+]1ccccc1)c1ccc(Cl)cc1 | inactive: -5.69%
53 | O=C(CSc1nc2sc3c(c2c(=O)[nH]1)CCC3)NCCO | inactive: -1.06%
54 | O=C(CNc1ccccc1N1CCCC1=O)Nc1cc(C(F)(F)F)ccc1-n1cncn1 | inactive: 16.3%
55 | CC1=CCC2C(=O)N(c3ccc4ccccc4n3)C(=O)C2C1 (stereo not drawn) | inactive: 4.76%
56 | Cc1noc(C)c1C(=O)OCC(=O)NC1CCCCC1C (stereo not drawn) | inactive: -3.89%
57 | Cc1oc2cc(O)ccc2c(=O)c1-c1nncn1-c1ccccc1 | inactive: -13.1%
58 | Cc1ccc(CCNC(=O)CCSCc2ccc(Cl)cc2)cc1 | inactive: 7.35%
59 | CC(C)(C)C(=O)N1CCN(c2ccc(NC(=O)c3ccc4c(c3)OCCO4)cc2)CC1 | inactive: 3.35%
60 | CCc1nc(N2CCOCC2)c(C#N)c2c1COC(C)(C)C2 | inactive: 26.1%
61 | O=C(CCc1nnc(-c2ccccc2)o1)NCc1cc(F)ccc1F | inactive: 23.9%
62 | CCCC(C(=O)NCC1CCCO1)N(Cc1ccccc1)C(=O)CNS(=O)(=O)c1ccccc1 (stereo not drawn) | inactive: 3.05%
63 | C[N+]1(C)CC2=Cc3ccccc3CC2C1 (stereo not drawn) | inactive: -21.3%
64 | CCCCC(=O)NC(=S)Nc1cccc(C(=O)O)c1 | inactive: 12.8%
65 | CC(=O)NC(c1ccccc1)c1nc(-c2ccccc2)cs1 (stereo not drawn) | inactive: 20.2%
66 | COc1cc(C(C)=O)ccc1OCC(O)CN1CCN(c2ccc(F)cc2)CC1 (stereo not drawn) | inactive: 10.7%

Row | SMILES | growth rescue (activation)
67 | CC(=O)NC(NC(=S)Nc1ccccc1Br)C(Cl)(Cl)Cl (stereo not drawn) | inactive: 17.4%
68 | COc1cc(Cl)cc(/C=C/c2ccc3cccc(O)c3n2)c1OC | inactive: 12.6%
69 | O=C(c1ccncc1)N1N=C(c2ccc(Cl)cc2)CC1c1ccccc1O (stereo not drawn) | inactive: 35.4%
70 | CCN1/C(=C/c2ccc3ccc(C)cc3[n+]2CC)Sc2ccccc21 | inactive: -91.8%
71 | CC(=O)Nc1cccc(-c2ccnc3c2CC(C(=O)Nc2cccc(Oc4ccccc4)c2)O3)c1 (stereo not drawn) | inactive: 11.4%
72 | Clc1ccc(C2=NNC(=NCC3CCCO3)SC2)cc1 (stereo not drawn) | inactive: 16.2%
73 | COCCCNC(=O)c1c(N)n(/N=C/c2cccnc2)c2nc3ccccc3nc12 | inactive: 41.9%
74 | S=c1nc(C2CC2)n(-c2ccccc2)[nH]1 | inactive: 1.74%
75 | Cc1cc(N2CCOCC2)ccc1/C=C1\NC(=O)N(Cc2ccccc2F)C1=O | inactive: 8.26%
76 | Cn1cc(CN2CCN(Cc3cccnc3)CC2)c(-c2ccc3c(c2)OCCO3)n1 | inactive: 14.5%
77 | CC(=O)c1ccc[n+](CC(=O)NC(C)c2ccccc2)c1 (stereo not drawn) | inactive: -2.36%
78 | N=c1n(CCCOc2ccc(F)cc2)c2ccccc2n1CC(N)=O | inactive: 23.1%
79 | CC(=O)Nc1ccc(S(=O)(=O)N2CCC(C(=O)NCCc3ccc(Cl)cc3)CC2)cc1 | inactive: 4.2%
80 | O=C(COC(=O)COc1ccc(Cl)cc1Br)NCc1cccs1 | inactive: -11.4%
81 | CCC(C)c1ccc(NC(=O)c2[nH]c(C)c(C(C)=O)c2C)cc1 (stereo not drawn) | inactive: 27.2%
82 | O=C(O)c1cccc(-c2csc(C(O)c3ccccc3)n2)c1 (stereo not drawn) | inactive: 15.1%
83 | CCOc1ccc(NC(=O)CN2C(=O)C(c3ccccc3)=NC23CCCCCC3)cc1 | inactive: 23.3%
84 | O=C(Nc1cccc(Cl)c1)Nc1ccc2c(c1)C(=O)OC2 | inactive: -3.54%
85 | CC1(C(=O)Nc2ccc3c(c2)OCCO3)CCN1Cc1ccccc1OC(F)F (stereo not drawn) | inactive: 2.04%
86 | CCN1CCN(C(=S)NC(=O)c2cc(OC)c(OC)c(OC)c2)CC1 | inactive: 12%
87 | COc1ccc(Br)cc1CN(C)CC(=O)Nc1cccc(S(=O)(=O)N2CCCC2)c1 | inactive: -4.38%
88 | CCC(C)NC(=O)CC(c1ccccc1)c1cc(C)ccc1O (stereo not drawn) | inactive: 3.35%

Row | SMILES | growth rescue (activation)
89 | Cc1cc(C)c2c(c1)N[C@H](c1cccs1)[C@@H]1CCO[C@H]21 | inactive: 10.6%
90 | COc1cccc(NC(=O)COc2ccccc2C(N)=O)c1 | inactive: 16.5%
91 | COc1ccc(S(=O)(=O)N2CCC(Nc3ccccc3Cl)CC2)cc1 | inactive: 15.5%
92 | Cc1ccc(S(=O)(=O)N2CCN(CC(=O)NC(C)c3ccccc3)CC2)cc1 (stereo not drawn) | inactive: 4.7%
93 | Cc1cc(=O)oc2cc(OCC(=O)NC3CCCCC3)c(Cl)cc12 | inactive: 3.71%
94 | COc1ccc(CCNC(=O)C(C)Sc2ccccc2)cc1OC (stereo not drawn) | inactive: -12.3%
95 | CC(C)(C)c1ccc(C(=O)NCC(=O)N/N=C/c2cccnc2)cc1 | inactive: 3.9%
96 | Cc1cc(NC(c2cccnc2)c2ccc3cccnc3c2O)no1 (stereo not drawn) | inactive: 0.0813%
97 | CC(=O)Nc1ccc(OCc2nnc(-c3ccc(Cl)cc3)o2)cc1 | inactive: 37.6%
98 | COc1ccc(NC(=O)NCc2ccc3c(c2)OCO3)cc1 | inactive: 3.47%
99 | CC1CCC(C(=O)NC(C(=O)Nc2ccccn2)C(C)C)CC1 (stereo not drawn) | inactive: 10.1%
100 | O=C(c1ccc(Cl)c(S(=O)(=O)N2CCOCC2)c1)N1CCCCCC1 | inactive: 15.5%
101 | COc1ccc(-c2nnc(SCC(=O)NCC3CCCO3)n2C)cc1 (stereo not drawn) | inactive: 2.34%
102 | COc1cc(CNn2c(C)n[nH]c2=S)cc(Cl)c1OCC(=O)NC(C)(C)C | inactive: -13.6%
103 | CC1CN(c2ccccc2)c2nc3c(c(=O)[nH]c(=O)n3C)n2C1 (stereo not drawn) | inactive: -7.45%
104 | CC(=O)c1cccc(NC(=O)c2ccc(OC3CSC3)cc2)c1 | inactive: 11.2%
105 | CCc1cc2cc3c(cc2nc1SCC(=O)Nc1c[nH]c(=O)[nH]c1=O)OCO3 | inactive: 6.56%
106 | CCOc1ccccc1NC(=O)C1CCN(C(=O)C2CC(=O)N(c3ccc(C)cc3)C2)CC1 (stereo not drawn) | inactive: 9.99%
107 | CC(=O)C(Cc1ccccc1)NC(=O)CN(C)Cc1ccccc1Cl (stereo not drawn) | inactive: -0.359%
108 | COc1cccc(N2C(=O)CC(N3CCN(CCN=CC4=C(O)CC(C)(C)CC4=O)CC3)C2=O)c1 (stereo not drawn) | inactive: 18.7%
